# Laboratory results as given in the supplement of paper PMC12217912.
# Some of the results follow. Sequences were assembled here from the parent chain. Inactive controls read about 0.05.
# B1: TEV protease; numbered along this chain (parent)
# chain: MGESLFKGPRDYNPISSSICHLTNESDGHTTSLYGIGFGPFIITNKHLFRRNNGTLVVQSLHGVFKVKDTTTLQQHLVDGRDMIIIRMPKDFPPFPQKLKFREPQREERICLVTTNFQTKSMSSMVSDTSCTFPSGDGIFWKHWIQTKDGQCGSPLVSTRDGFIVGIHSASNFTNTNNYFTSVPKNFMELLTNQEAQQWVSGWRLNADSVLWGGHKVFMVKPEEPFQPVKEATQL
# Variants of: B1
# Assay: raw area under fraction-flipped curve 0-4 h after induction (AUC4h, not background-subtracted), DNA-recorder readout of cleavage of the substrate (dimensionless); higher = more cleavage of the substrate by the protease variant
# Settings: temperature: 34 °C; time window: 0-4 h after rhamnose induction
# Procedure: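 In vivo DNA recorder in E. coli TOP10(DE3) ΔrhaA at 34 °C. Each TEVp single-site mutant (parent TEVp 0) is paired with a single-site variant of the 7-mer TEVs (canonical ENLYFQ|S). The substrate sits between flexible linkers in a Bxb1-sfGFP-TEVs-SsrA fusion, so cleavage stabilises Bxb1 and speeds flipping of a recombination array, read by NGS. The value is the raw area under the fraction-flipped curve over 0-4 h after rhamnose induction (AUC4h), with ≥20 reads per time point. It is not background-subtracted; inactive controls average about 0.047.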
# 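Also: Bxb1 expression induced with 0.2% (w/v) L-rhamnose at OD600 near 0.5, cultures sampled hourly, flipped fraction per protease–substrate barcode pair counted by paired-end Illumina sequencing.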
Variant,area with substrate EALYFQS,area with substrate ECLYFQS,area with substrate EDLYFQS,area with substrate EILYFQS,area with substrate EMLYFQS,area with substrate EQLYFQS,area with substrate ERLYFQS,area with substrate ESLYFQS,area with substrate ETLYFQS,area with substrate EVLYFQS,area with substrate EELYFQS,area with substrate EGLYFQS,area with substrate EKLYFQS,area with substrate ELLYFQS,area with substrate EPLYFQS,area with substrate EWLYFQS,area with substrate EYLYFQS,area with substrate EFLYFQS,area with substrate EHLYFQS
MGESLFKGPRDYNPISSSICHLTNESDGHTTSLYGIGFGPFIITNKHLFRRNNGTLVVQSLHGVFKVKDTTTLQQHLVDGRDMIIIRMPKDFPPFPQKLKFREPQREERICLVTTNFQTKSMSSMVSDTSCTFPSGDGIFWKHWIQTKDGQCGSPLVSTRDGFIVGIHSASNFTNTINYFTSVPKNFMELLTNQEAQQWVSGWRLNADSVLWGGHKVFMVKPEEPFQPVKEATQL [N177I],0.167,0.101,0.205,0.116,0.231,0.11,0.172,0.164,0.155,0.122,–,–,–,–,–,–,–,–,–
MGESLFKGPRDYNPISSSICHLTNESDGHTTSLYGIGFGPFIITNKHLFRRNNGTLVVQSLHGVFKVKDTTTLQQHLVDGRDMIIIRMPKDFPPFPQKLKFREPQREERICLVTTNFQTKSMSSMVSDTSCTFPSGDGIFWKHWIQTKDGQCGSPLVSTRDGFIVGIHSASNFTNTPNYFTSVPKNFMELLTNQEAQQWVSGWRLNADSVLWGGHKVFMVKPEEPFQPVKEATQL [N177P],0.069,0.0816,–,0.0517,0.0658,0.0754,0.0609,0.07,0.0704,0.0657,0.0621,0.0612,0.0694,0.0598,0.066,0.105,0.0712,–,–
MGESLFKGPRDYNPISSSICHLTNESDGHTTSLYGIGFGPFIITNKHLFRRNNGTLVVQSLHGVFKVKDTTTLQQHLVDGRDMIIIRMPKDFPPFPQKLKFREPQREERICLVTTNFQTKSMSSMVSDTSCTFPSGDGIFWKHWIQTKDGQCGSPLVSTRDGFIVGIHSASNFTNTNAYFTSVPKNFMELLTNQEAQQWVSGWRLNADSVLWGGHKVFMVKPEEPFQPVKEATQL [N178A],0.132,0.115,0.135,–,–,–,–,0.114,–,–,–,–,0.102,–,–,–,–,–,–
MGESLFKGPRDYNPISSSICHLTNESDGHTTSLYGIGFGPFIITNKHLFRRNNGTLVVQSLHGVFKVKDTTTLQQHLVDGRDMIIIRMPKDFPPFPQKLKFREPQREERICLVTTNFQTKSMSSMVSDTSCTFPSGDGIFWKHWIQTKDGQCGSPLVSTRDGFIVGIHSASNFTNTNNAFTSVPKNFMELLTNQEAQQWVSGWRLNADSVLWGGHKVFMVKPEEPFQPVKEATQL [Y179A],0.0637,0.0655,–,–,–,–,–,0.0632,0.0646,–,–,–,–,0.0504,–,–,–,–,–
MGESLFKGPRDYNPISSSICHLTNESDGHTTSLYGIGFGPFIITNKHLFRRNNGTLVVQSLHGVFKVKDTTTLQQHLVDGRDMIIIRMPKDFPPFPQKLKFREPQREERICLVTTNFQTKSMSSMVSDTSCTFPSGDGIFWKHWIQTKDGQCGSPLVSTRDGFIVGIHSASNFTNTNNEFTSVPKNFMELLTNQEAQQWVSGWRLNADSVLWGGHKVFMVKPEEPFQPVKEATQL [Y179E],0.0698,–,0.0662,–,0.0622,–,–,0.0504,–,–,–,–,–,–,–,0.0604,–,–,–
MGESLFKGPRDYNPISSSICHLTNESDGHTTSLYGIGFGPFIITNKHLFRRNNGTLVVQSLHGVFKVKDTTTLQQHLVDGRDMIIIRMPKDFPPFPQKLKFREPQREERICLVTTNFQTKSMSSMVSDTSCTFPSGDGIFWKHWIQTKDGQCGSPLVSTRDGFIVGIHSASNFTNTNNRFTSVPKNFMELLTNQEAQQWVSGWRLNADSVLWGGHKVFMVKPEEPFQPVKEATQL [Y179R],0.0654,–,–,0.0544,0.0591,–,–,0.071,0.0588,0.0625,0.0697,0.0546,0.0562,0.0543,–,–,0.07,0.0349,0.0494
MGESLFKGPRDYNPISSSICHLTNESDGHTTSLYGIGFGPFIITNKHLFRRNNGTLVVQSLHGVFKVKDTTTLQQHLVDGRDMIIIRMPKDFPPFPQKLKFREPQREERICLVTTNFQTKSMSSMVSDTSCTFPSGDGIFWKHWIQTKDGQCGSPLVSTRDGFIVGIHSASNFTNTNNSFTSVPKNFMELLTNQEAQQWVSGWRLNADSVLWGGHKVFMVKPEEPFQPVKEATQL [Y179S],0.0541,0.0573,–,0.055,0.0602,–,0.0628,0.0748,–,0.0482,0.0637,0.0507,–,0.0681,0.0594,0.054,0.0479,0.0522,–
MGESLFKGPRDYNPISSSICHLTNESDGHTTSLYGIGFGPFIITNKHLFRRNNGTLVVQSLHGVFKVKDTTTLQQHLVDGRDMIIIRMPKDFPPFPQKLKFREPQREERICLVTTNFQTKSMSSMVSDTSCTFPSGDGIFWKHWIQTKDGQCGSPLVSTRDGFIVGIHSASNFTNTNNYFFSVPKNFMELLTNQEAQQWVSGWRLNADSVLWGGHKVFMVKPEEPFQPVKEATQL [T181F],0.0469,0.0526,–,0.0483,0.0569,0.0543,–,0.0798,0.0256,0.0653,0.0598,–,–,0.0207,0.06,0.0528,0.0597,–,–
MGESLFKGPRDYNPISSSICHLTNESDGHTTSLYGIGFGPFIITNKHLFRRNNGTLVVQSLHGVFKVKDTTTLQQHLVDGRDMIIIRMPKDFPPFPQKLKFREPQREERICLVTTNFQTKSMSSMVSDTSCTFPSGDGIFWKHWIQTKDGQCGSPLVSTRDGFIVGIHSASNFTNTNNYFTRVPKNFMELLTNQEAQQWVSGWRLNADSVLWGGHKVFMVKPEEPFQPVKEATQL [S182R],0.0781,0.079,–,0.0476,0.0778,–,–,0.0585,0.0603,0.0817,–,–,–,–,0.0765,–,–,–,0.0703
MGESLFKGPRDYNPISSSICHLTNESDGHTTSLYGIGFGPFIITNKHLFRRNNGTLVVQSLHGVFKVKDTTTLQQHLVDGRDMIIIRMPKDFPPFPQKLKFREPQREERICLVTTNFQTKSMSSMVSDTSCTFPSGDGIFWKHWIQTKDGQCGSPLVSTRDGFIVGIHSASNFTNTNNYFTSAPKNFMELLTNQEAQQWVSGWRLNADSVLWGGHKVFMVKPEEPFQPVKEATQL [V183A],0.0819,–,–,0.0836,0.127,0.1,0.0756,0.0865,–,–,–,0.112,0.0883,0.0873,0.0856,0.0806,0.0863,–,–
